Results on 80 sequences are retold here after the supplement of paper PMC10681739.

Whole data set: some 2,700 sequences, median “arbitrary fluorescence units” near 4,100, cut for the highest 2% near 54,000. The list shows a part of the results.

This test has as its target T1, ETS1 (UniProt P14921).
T1 sequence: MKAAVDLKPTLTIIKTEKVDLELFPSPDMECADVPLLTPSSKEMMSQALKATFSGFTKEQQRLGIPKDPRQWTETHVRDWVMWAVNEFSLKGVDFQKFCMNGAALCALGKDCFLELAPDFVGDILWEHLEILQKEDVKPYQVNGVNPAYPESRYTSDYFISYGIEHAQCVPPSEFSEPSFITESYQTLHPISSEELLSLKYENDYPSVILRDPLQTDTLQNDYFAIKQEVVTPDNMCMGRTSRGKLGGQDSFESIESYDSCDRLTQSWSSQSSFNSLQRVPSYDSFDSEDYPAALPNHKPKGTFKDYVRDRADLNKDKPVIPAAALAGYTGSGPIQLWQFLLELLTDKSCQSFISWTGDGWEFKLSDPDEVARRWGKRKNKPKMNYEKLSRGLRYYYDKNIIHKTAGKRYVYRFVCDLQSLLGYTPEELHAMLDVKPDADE
Kind of test: ETS1 binding intensity (PBM fluorescence) (arbitrary fluorescence units); higher = stronger binding. The settings on record: ETS1 concentration 10 nM. The protocol:
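gcPBM on wild-type 36-bp genomic probes with two neighbouring ETS1 sites (4-24 bp apart). Recombinant human ETS1 (10 nM) was detected with anti-ETS1 antibody fluorescence. Values are medians over 3 replicate spots. The probes sit in constant array flanks that are not printed.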
As to CCCCAGGAAGAGCGCGCCGGGCGCCGACTTCCCCTG, the ETS1 binding intensity stood at 225. As to CAACCGAAAACATCCCGTGCCGGAAGCGCGTCATCG, the ETS1 binding intensity worked out at 4780. For CCCGCCCACCTTTCCTGGGGCGGATGCGTTCCCGCA the value was 509; for TAGGCATGTATTTCCTCAAACTTCCTCATACTTGTT, 1460. For TGGGCGGCCGGATGAGGTCAGAGCGGAAGGCGCGGC the value was 2260; for TTCCACTCTGATTTCCTGTACTTCCCAAGGTCTGCC, 13400. Sequence GGCGAGAGGAGGAAGCACCGGCGGAAACCCGAGGGA came in with an ETS1 binding intensity of 464. The figure for AACTGACAGGAAGAGGCGGGGCCCTTCCTGTGGCGC is 2430; for TACATCATCCTGTACAGAGGGAGTCAGGAAAAGGAA it is 3210; for TCGGCGCCGGAAGTGAGTGAGCATTTCCGGCAGCCA it is 22300.

In turn, GACATTTCCCAGATGTGGTTTGTGGTCGGATGCCCC had an ETS1 binding intensity of 274. CAGGAGGGAACAGGAAAAACAGGAACTCACTGTCTC: the ETS1 binding intensity was determined as 328. The sequence TGCATATCCTGGAACTCCACATTTCCTCCTGGTGAC gave an ETS1 binding intensity of 8830. The figure for ATGGCTGCCCACATCCTGGTTTCCTCTCTCCGAGCA is 8310; for TTTAACACGTTTCCCAGGCAACAGGAAGCTCTCAGT it is 465. For GGACAGGAAAGCGCAGCCGCGCACGGGTTTCCTCTC the value was 458. In turn, CTGACCTGCTTCCTCATGGTTGTTTCCTGCCTATTG came in with an ETS1 binding intensity of 3740. The figure for TTGTCCTTCCGGCTAGCTTCTCTTGACTTCCTGGCA is 16000; for TCCATTTCCTGCCTCAGTGTGAGTGGCAGGAAGACC it is 48700.

TTCAGGATGAGTCATCCATTTCCTGCCAAGAACAAT: the ETS1 binding intensity is 9570. The figure for GACATCACCAGGATGCTATGTGCTTCCTCTGAAGTA is 414; for CCTGCTCGGAAGTCTACGAGGACGCTTCCGGGTCAC it is 1770; for GCACACAGGAAGCTCCTCCCCTCACAGGATGTATGC it is 6480. The figure for GAGAGAGTGGAGCAGGAAGGAAGCCGGGGCCCTGAA is 288; for AGCAACTTCCGGTGCGCTTAGCGTTACTTCCGGCGC it is 116000. For AAGTCAGGAAACAACAGATGCTGGAGAGGATGTGCA the value was 365. In turn, CAAACTAACATATCCTGAGCACTTCCTGTGTGACTA showed an ETS1 binding intensity of 9810. Turning to ACGTTGCTTCCGGTGCCTGGCTCCGTTTCCTGCTTT, the ETS1 binding intensity amounted to 51300. Turning to CCCTAGTAGTTCCGCTCCGAGGGCGGAAGTGCGCGT, the ETS1 binding intensity is 7820.

On to CCCGGGCAGCGGAAATGGTTAGCTTCCTCTAGGAGT, for which the ETS1 binding intensity stood at 8910. For GAAACGGAAGTGCGCGCCGAGGCTCCTGGGAAATGT, the ETS1 binding intensity was found to be 8250. Consider GCCGGCGGAAGTGCTGCGTCGCGCACTTCCGGGTGT, for which the ETS1 binding intensity worked out at 16200. In the case of TTCCCACATCATCCTGTTGATTCATCCGCTCAAACA, the ETS1 binding intensity was determined as 2570.

In turn, CCACCCTGCTTCCTGCTTAACCATTTCCTGCTGACT yielded an ETS1 binding intensity of 15300. ACCGGGCGGTGAGGAAGCTCCGGAAATACATCGTCG: the ETS1 binding intensity came to 1930.

With CGTTTCGACATCCTGCCTGACGTCTTCCTGTAGCAT, the ETS1 binding intensity was determined as 20900. Consider GGTAAGTTCTACAGGAAACAGGAAACATGGTTTAAC, for which the ETS1 binding intensity was determined as 4210. The figure for CCCAGGGCCTTCCGCGTCCTCCTGTTCCGGCAGGAG is 571; for GTGATTCACATCCTCTGTTCCCCAGGATGACTCAAC it is 6200; for CCCACTTCCGGCAACAAGATAGAGCACTTCCGTCAA it is 77600.

The sequence AATTAGAACGACTTCCCCACTTCCGTCGGGTTCCAC registered an ETS1 binding intensity of 4860.

As for AGGGAACGAGTGCAGGAAGGAAGTGAGAGAGTTCTG, the ETS1 binding intensity worked out at 297. Take TAAGTAGCTTCCTGTATCTAACACAGGATGTTGAAA: the ETS1 binding intensity was determined as 17800. For CAGAGGCACAGGAAGACAAGACTTCCTGCACCCAGC the value was 5110; for CAGCCACTTCCTGGTACCCAAGGCCGGAAGTCCCTT, 21000; for GGCTGGCAGGAACTTCACCATGTATTTCCGCTAGAA, 2210. For CTTTTTTCACTTCCCTCCTCCCATCCGGCCAGGACA the value was 4630; for CAGTTGGTCTGCCAGGAAGGAAGTCGGCTCAGGGGA, 354; for TTTGTTGAAAGACTTCCTACTTCCTCTTTGACTCAT, 5830. CAGCCTCTAGGTTCCGCCAATTTCCTGGTTGCTAAC: the ETS1 binding intensity was 1830.

CGGCCGGAAATGCGCGCGCGGCTCTCTGGGAAATGG returned an ETS1 binding intensity of 18800.

In the case of CAGGGACGCGCGAGGAAACCGGAAGTCAGGCCCGAG, the ETS1 binding intensity came to 17000.

GAGACAGGAAGAGCCAAAAAACTACATTTCCCAGTC registered an ETS1 binding intensity of 4740. Sequence TCCAAGAGGAAGTGAGCGGTGCAAAGGAAGCCAGGA had an ETS1 binding intensity of 3030.

AATGCCCTTCCTGTTGAGAGCCAGCAGGAAGGCTGG: the ETS1 binding intensity is 16300. Sequence ATCCAGCTATTCAGGAAGCGGAAGCAGGAGAGTCGC had an ETS1 binding intensity of 2030. The figure for ATGTATTCCGGCTCCTCCTCCCTCAGCAGGAAGCCA is 1290. The figure for GGGGCGGCTCGGAAACCCCAGCGGAAGGCAGCAAGG is 183. With TCCGAGGCCGGAAGTCAGAAGGCGGAAGTGAACTGC, the ETS1 binding intensity is 26400. The figure for ACATAAGGGAGGAAGAGTGTCATATCCTTTCAATTG is 320; for AGACGAACCGGAAACGAACCCCATTTCCGGCCTGGG it is 37300.

For TCACTTCCGCCATGAGGGCTTCAGCTGCATCCTGTT, the ETS1 binding intensity is 37400. Regarding AGAACAGGATGTAACAAAATAATCTATTTCCGGCAT, the ETS1 binding intensity worked out at 17800.

Sequence GGACTCGGCGCTCGGAAGCGGAAGCCGCTCCGCCCC came in with an ETS1 binding intensity of 1150. In turn, AGTCACTTCCTCTCTCTAGGCATCGGTTTCCTCTTC registered an ETS1 binding intensity of 20200.

Consider CACCCTCCATGGTTCCAGCCGGAAAAAGAGGAAGTT, for which the ETS1 binding intensity was found to be 270.

In the case of GGACAGGGACCGGATGGGAGGGGAAGTCGATGCTTG, the ETS1 binding intensity amounted to 3430.

As for CACCCATTTTCACTTCCGCTTCCGGTTGTCACAGGC, the ETS1 binding intensity was found to be 26500.

GGCGTTCCACAGGAAAAGCCTTTTCCTGTGTTTGGC had an ETS1 binding intensity of 2540. The figure for CGGGCAGGAAGCTCCACCCTCACTCCAGGAAGCTCT is 2640.

In turn, CCCGCCGGAAGCTGGGGTCCGCAGGCCGGAAGCTGA had an ETS1 binding intensity of 17500. For CGTACAGGATGCAATGACAGTTGGTGGGAAATGACA the value was 2230; for CCGCCCTCACAATATCCCAGGAAACAGACATCCGCG, 275; for GGGAAAGGAAATAGCTCTACGAGCGGCATCCTGCCT, 2170.

For the sequence CACGTTCACTTCCTGGTTCACTTCTTCCGGGTTAAC, the ETS1 binding intensity amounted to 18200. The figure for GCCGGAGACTAGCTTCCGCTTCCGGTGTGAGCGGCC is 26200. As to TGCGCATTTCCGCTCCTTGCCGGTTTTCCGGACCTC, the ETS1 binding intensity was found to be 36000.

AGTAGGTCTCTACGGAAACAGGAAAAAAAAAAATTC: the ETS1 binding intensity amounted to 204.

The sequence TCGCTTCCTCTGAGTAAGCAGGTTTTTAGGAAATTA gave an ETS1 binding intensity of 7330. Sequence GGGCGAGCTTCCTGCCAATCAGGGCGGAACCAGCGC returned an ETS1 binding intensity of 14400.
